From article PMC4336329 (PLoS ONE, 2015)
Screen size: about 310,000 compounds; about 2,200 (0.71%) showed an effect of 50% or more. Effects have a minus sign here. The list shows a part of the results.

Each compound was assayed against human ether-à-go-go-related gene (hERG) potassium channel (human, UniProt Q12809) (assay: primary screen, population patch clamp on CHO cells stably expressing hERG).
human ether-à-go-go-related gene (hERG) potassium channel, sequence (Q12809 whole entry, looked up): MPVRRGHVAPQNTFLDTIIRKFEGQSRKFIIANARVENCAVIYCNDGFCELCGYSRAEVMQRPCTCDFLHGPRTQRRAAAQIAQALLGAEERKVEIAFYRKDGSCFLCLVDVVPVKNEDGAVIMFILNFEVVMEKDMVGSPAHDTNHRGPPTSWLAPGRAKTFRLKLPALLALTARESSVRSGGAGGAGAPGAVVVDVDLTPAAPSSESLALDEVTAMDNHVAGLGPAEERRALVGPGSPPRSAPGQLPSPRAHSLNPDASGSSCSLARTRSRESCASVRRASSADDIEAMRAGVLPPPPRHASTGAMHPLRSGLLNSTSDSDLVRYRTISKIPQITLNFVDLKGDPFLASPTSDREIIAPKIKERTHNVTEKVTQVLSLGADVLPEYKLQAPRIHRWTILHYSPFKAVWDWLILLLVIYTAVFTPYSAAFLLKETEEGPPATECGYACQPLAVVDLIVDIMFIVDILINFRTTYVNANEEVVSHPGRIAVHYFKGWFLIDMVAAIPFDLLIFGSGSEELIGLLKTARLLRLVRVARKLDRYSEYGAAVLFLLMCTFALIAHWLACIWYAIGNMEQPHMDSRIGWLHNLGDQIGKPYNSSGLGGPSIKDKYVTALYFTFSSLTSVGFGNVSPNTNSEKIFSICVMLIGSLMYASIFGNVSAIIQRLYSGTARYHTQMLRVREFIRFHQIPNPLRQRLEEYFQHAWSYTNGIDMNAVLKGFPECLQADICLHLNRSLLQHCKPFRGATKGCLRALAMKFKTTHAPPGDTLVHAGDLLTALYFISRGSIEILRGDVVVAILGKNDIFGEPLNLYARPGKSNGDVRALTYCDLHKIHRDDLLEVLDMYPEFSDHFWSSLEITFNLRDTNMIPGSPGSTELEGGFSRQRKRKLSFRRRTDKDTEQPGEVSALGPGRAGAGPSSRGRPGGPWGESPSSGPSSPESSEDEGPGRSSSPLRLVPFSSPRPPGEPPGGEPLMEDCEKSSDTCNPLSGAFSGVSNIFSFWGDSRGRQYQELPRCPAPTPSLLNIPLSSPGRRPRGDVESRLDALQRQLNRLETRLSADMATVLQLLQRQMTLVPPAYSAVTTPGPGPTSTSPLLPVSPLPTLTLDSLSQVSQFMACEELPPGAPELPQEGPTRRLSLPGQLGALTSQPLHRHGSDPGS

| SMILES | hERG current change (%, negative = inhibition) at 1uM [%] |
| --- | --- |
| NS(=O)(=O)c1ccc(NC(=S)NC(=O)c2ccc(-c3ccccc3)cc2)cc1 | 0.751 |
| Cc1cc(S(=O)(=O)NCC2CCCO2)c(C)cc1Br (stereo not drawn) | 13 |
| COc1ccc([N+](=O)[O-])cc1NC(=O)Cn1ccc(C(F)(F)F)n1 | 21.8 |
| CC(NC(=S)NCc1ccccc1)C12CC3CC(CC(C3)C1)C2 (stereo not drawn) | 13.2 |
| COc1ccc(C(=O)Oc2cccc3cccnc23)cc1S(=O)(=O)N1CCOCC1 | 10.4 |
| O=C(c1ccc(O)cc1)c1ccc(C(=O)c2ccc(O)cc2)cc1 | 3.11 |
| Cc1ccc(C)c(Cc2c(C)nc3c(C(=O)N4CCOCC4)cnn3c2C)c1 | -9.44 |
| CC1=NOC(=O)/C1=C/c1ccc(N(C)C)cc1 | 4.93 |
| Cc1cc(-c2nnc3n2N=C(C(C)(C)C)CS3)n[nH]1 | 13.7 |
| Cc1cc(C)c2c(c1)[C@@H]1C=CC[C@@H]1[C@H](c1ccc(S(=O)(=O)N3CCOCC3)cc1)N2 | 4.32 |
| CCNC(=O)COc1cccc2ccccc12 | -5.49 |
| O=C(N/N=C\c1ccc[nH]1)C1COc2ccccc2O1 (stereo not drawn) | 6.88 |
| CCOc1cc(C(C#N)N2CCCCC2)ccc1OC (stereo not drawn) | -0.587 |
| CC(C)N1CCc2c(sc(NC(=O)CCc3ccccc3)c2C(N)=O)C1.Cl | -1.98 |
| CN(C(=O)c1ccccc1Cl)c1ccccc1 | 3.61 |
| COc1ccccc1CC(=O)Nc1ccccc1C(=O)O | 14.1 |
| CCN(C(=O)COC(=O)CNC(=O)c1ccc2ccccc2c1)C1CCS(=O)(=O)C1 (stereo not drawn) | 4.72 |
| CC(=O)Nc1ccc(N/C=C/C(=O)c2ccccc2)cc1 | 11.9 |
| CCN(c1ccccc1)S(=O)(=O)c1ccc2c(c1)N(C(C)=O)CCS2 | 3.38 |
| CC1CCCCC1NC(=O)c1cn(C)c2ccc(S(=O)(=O)N3CCOCC3)cc2c1=O (stereo not drawn) | 6.11 |
| Cc1ccc(C)c(NC(=O)CS(=O)(=O)c2cccc3nsnc23)c1 | 3.88 |
| CCOC(=O)N1CCN(CC(=O)Nc2ccc(F)c(F)c2F)CC1 | 15.5 |
| CCOC(=O)N1CCN(c2c(NCCCN(CC)CC)c(=O)c2=O)CC1 | 9.34 |

| SMILES | hERG current change (%, negative = inhibition) at 1uM [%] |
| --- | --- |
| COc1ccc(C(OCC(O)CNC(C)c2ccccc2)c2ccc(OC)cc2)cc1 (stereo not drawn) | -7.6 |
| O=C(O)Cn1c(CCS(=O)(=O)c2ccc(Br)cc2)nc2ccccc21 | 10.1 |
| CC(C)(C)c1ccc(C(=O)c2cn[nH]c2-c2ccccc2O)cc1 | 7.86 |
| Cn1c(O)c(C=Nc2ccc(F)cc2)c(=O)[nH]c1=O | 13.5 |
| O=C(N/N=C/c1ccccn1)c1ccccc1 | 6.27 |
| CSc1ccc(C2Nc3cccc4cccc(c34)N2)cc1 | 16.3 |
| CCc1ccc(S(=O)(=O)Nc2ccc(C)c(NS(C)(=O)=O)c2)cc1 | 4.12 |
| O=c1nc(Nc2ccc(OCc3ccccc3)cc2)sc2ncccc12 | 9.18 |
| O=C(Cn1nnc(-c2ccccc2)n1)OCc1ccccc1 | 18.5 |
| CN(C(=O)c1cc2n(n1)C(C(F)(F)F)CC(c1ccco1)N2)c1ccccc1 (stereo not drawn) | -4.69 |
| Cc1ccc(S(=O)(=O)CCc2nc3ccccc3[nH]2)cc1 | -1.24 |
| CSc1nsc(SCC(=O)Nc2cccc(C(C)=O)c2)n1 | 12.7 |
| O=C1CN(c2ccccc2)C(=O)N1 | 16.2 |
| CC(C)OCCCn1c(=O)c2ccccc2n2c(CCC(=O)N3CCN(c4ccccn4)CC3)nnc12 | -45.9 |
| C=CCn1cc(/C=N\NC(=O)c2cc3c(ccc4ccccc43)o2)c2ccccc21 | 5.2 |
| CCCN(CC(=O)Nc1ccccc1C)C(=O)c1ccc2c(c1)OCO2 | 12.3 |
| COc1ccccc1C(=O)NC(CCSC)C(=O)NCCCn1nc(C)cc1C (stereo not drawn) | 4.64 |
| CCOCCCNC(=O)c1ccc(Cn2c(=O)[nH]c3ccsc3c2=O)cc1 | 2.8 |
| O=C(COc1ccc(Cl)cc1)NCc1nnc(SCC(=O)NCCc2ccccc2)o1 | 5.77 |
| CN(C)S(=O)(=O)c1ccc(C(=O)OCC(=O)Nc2ccccc2OC(F)F)cc1 | 0.166 |
| CCCCn1c(=O)[nH]c(=O)c2c1nc(-c1ccncc1)n2CCOC | 9.21 |
| N#Cc1nc(COc2ccc(Cl)cc2)oc1N1CCN(Cc2ccccc2)CC1 | 10.2 |
| Cc1sc2nc3n(c(=O)c2c1C)NC(=O)CC3 | 10.4 |

| SMILES | hERG current change (%, negative = inhibition) at 1uM [%] |
| --- | --- |
| C=CCNC(=O)N[C@@H](CCSC)C(=O)OC | -3.48 |
| COc1cc(Cl)cc(C(c2c(C(=O)O)[nH]c3ccccc23)c2c(C(=O)O)[nH]c3ccccc23)c1O | 8.43 |
| C[C@H]1CCC(=O)N([C@H](CN=[N+]=[N-])Cc2ccccc2)CC1 | 9.09 |
| Cc1ccc(C2CC(=O)N3CN(c4ccc(Br)cc4)CSC3=C2C#N)o1 (stereo not drawn) | 6.59 |
| O=C(CSc1nnc(-c2ccco2)o1)c1ccc([N+](=O)[O-])cc1 | -2.45 |
| CCN(CC)c1ccc(NC(=O)COc2ccc(C)cc2)cc1 | -9.36 |
| O=C(COc1ccccc1)N/N=C/c1ccc([N+](=O)[O-])o1 | 7.87 |
| O=C(Nc1ccccc1F)c1ccc(Br)o1 | 15.7 |
| c1cc2c(cc1Oc1nc(N3CCOCC3)nc(N3CCOCC3)n1)OCO2 | 13.8 |
| CCn1ncc(Br)c1C(=O)Nc1ccccc1C(=O)OC | 0.669 |
| COc1cc(OC)nc(Oc2ccccc2C(=O)Oc2ccc(Cl)cc2)n1 | -13.1 |
| O=c1[nH]c(Nc2ccccc2Cl)cc2ccccc12 | 15.1 |
| O=C(Nc1nonc1-c1ccc(Cl)cc1)c1ccccc1 | 5.22 |
| Cc1ccc(S(=O)(=O)NC(=O)Nc2cc(C(C)(C)C)on2)cc1 | 9.16 |
| Cc1cccc2cc(C(c3nnnn3C(C)(C)C)N3CCN(C(=O)c4ccco4)CC3)c(=O)[nH]c12 (stereo not drawn) | 4.38 |
| CN(C)C(=O)CCCCCCCCC(=O)N(C)C | 11.2 |
| COc1ccc(/C(C)=N\NS(C)(=O)=O)c(OC)c1 | 12 |
| O=C(NNC1=C(C(=O)C(F)(F)F)CCC1)c1ccncc1 | 16.3 |
| CCOc1ccc(N(CC(=O)NC2CCCCC2)C(=O)CSc2nnc(COc3ccccc3)o2)cc1 | -4.53 |
| Cc1ccc(-c2ocnc2C(=O)Nc2ccccc2NC(=O)c2ccccn2)cc1 | 17.9 |
| CCc1ccc(-n2c(=O)c3ccccc3n(CC(=O)NCc3ccco3)c2=O)cc1 | 13.5 |
| O=C(CSc1nnc(-c2ccccn2)n1-c1ccc(Cl)cc1)Nc1ccc2c(c1)OCO2 | 18.2 |
| COc1ccccc1C(C)NC(=O)c1cc(=O)[nH]c2ccccc12 (stereo not drawn) | 17.4 |

| SMILES | hERG current change (%, negative = inhibition) at 1uM [%] |
| --- | --- |
| OCCn1nc2c3ccccc3nc-2n(-c2ccccc2)c1=S | -1.24 |
| COc1ccc(OCC(=O)NNc2c3ccccc3nc3ccccc23)cc1 | 16.8 |
| CCCn1c(SCc2ccccn2)nc2c1c(=O)n(C)c(=O)n2C | 16.5 |
| CCCCOc1ccc(C(=O)NCC(=O)NCC(=O)OCC)cc1 | 1.63 |
| COc1cc(-c2ccccc2)nc(N)n1 | -5.77 |
| O=C(Cn1cccc1C(=O)c1ccccc1)NCCCN1CCc2ccccc2C1 | -41.7 |
| Cc1ccccc1CSCCNC(=O)c1ccc(N(C)S(=O)(=O)c2ccccc2)cc1 | -0.902 |
| COc1ccc(C(=O)CSc2nncn2C)cc1 | 10.5 |
| CC(=O)c1ccc(N(C(=O)c2csnn2)C(C(=O)NC2CCCC2)c2ccccc2)cc1 (stereo not drawn) | -15.6 |
| Cl.O=C(NCC1CCNCC1)c1ccncc1 | 7.27 |
| CCC(C(=O)NC(C)(C)C)N(C(=O)Cn1nnc(-c2ccccc2F)n1)c1cnc2ccccc2c1 (stereo not drawn) | 13.2 |
| Cc1csc(C(=O)O)c1-n1cccc1 | 15.7 |
| c1ccc(C(c2ccccc2)N2CCN(Cc3nc(-c4cnccn4)no3)CC2)cc1 | 0.669 |
| COc1cccc(-c2ncc3ccccc3c2COC(=O)N2CCOCC2)c1 | 8.43 |
| COc1ccc(NC(=O)c2ccc(Cl)c(S(=O)(=O)N3CC(C)OC(C)C3)c2)cn1 (stereo not drawn) | 3.96 |
| CCCCNC(=O)Nc1c(C(=O)OC)[nH]c2ccc(C)cc12 | 10 |
| COc1ccc(NC(=O)C2CCCN(S(=O)(=O)c3cccc4cccnc34)C2)c(OC)c1 (stereo not drawn) | 8.76 |
| CCOc1ccc(Br)cc1/C=N/NC(=O)c1ccncc1 | -9.04 |
| CCOC(=O)C1CCCN(C(=O)Cn2cnc3c2c(=O)n(C)c(=O)n3C)C1 (stereo not drawn) | 18.7 |
| O=C(Nc1ccc(C(F)(F)F)cc1)C1CCCN1S(=O)(=O)c1cccc2cccnc12 (stereo not drawn) | -23.4 |
| COc1ccccc1CCc1nnc(CCC(=O)N(C)Cc2cccc3ncccc23)o1 | -1.35 |
